# Measurements published in PubChem BioAssay AID493208 (National Center for Advancing Translational Sciences (NCATS), 2011).
# The campaign covered roughly 44,000 compounds. About 340 (0.77%) were called active. Inconclusive results (about 5%) are left out. The call rests on the fitted dose curve; in most records, active means well fitted inhibition curve with a large enough effect; inconclusive means small, poorly fitted or top-dose-only effect; inactive means flat fitted curve, though single readings scatter. Some of the results follow.
# Experiment: Acumen qHTS Assay for Inhibitors of the mTORC1 Signaling Pathway in MEF (Tsc2-/-, p53-/-) Cells: Sytravon;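 further: plate controls were DMSO for no effect and rapamycin for full effect; nearly all actives have a fitted effect of over 50% in size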
# Conditions: phospho-rpS6 immunofluorescence/PI, 24 h; series mostly up to 38.3 µM; activity change, negative = inhibition: at the top concentration
# How it was run: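 Read-out: phospho-S6 Alexa-488 intensity over PI intensity per well, scored as % active cells using thresholds from rapamycin (7.5 nM) and DMSO controls. Tsc2-/-, p53-/- MEFs exposed to compound for 24 h; PI cell count recorded as viability.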
row,SMILES,"activity change, negative = inhibition"
1,Cc1cccc(-c2nc(CSCC(=O)NCCc3ccc(Cl)cc3)c(C)o2)c1,inactive: 2.47%
2,Cc1ccc(CNC(=O)c2ccc(-c3nc(CS(=O)c4ccccc4)c(C)o3)cc2)cc1 (stereo unspecified),inactive: -3.88%
3,Cc1ccc(-c2nn(CC(=O)NC3CCCC3)c3c2cnc2ccccc23)cc1,inactive: -19.4%
4,Cc1ccc(C)c(NC(=O)CN2C(=O)c3cccnc3Oc3ccc(C)cc32)c1,inactive: -5.24%
5,COCCn1ccc2c(OCC(=O)Nc3ccccc3F)cccc2c1=O,inactive: -3.38%
6,CCOC(=O)N1CCc2c(sc3c2c(=O)n(CCc2ccccc2)c(=O)n3CC(=O)Nc2cccc(C)c2)C1,inactive: 10.5%
7,CCn1nc(C)c(CCN(C)C(=O)Nc2cc(C)cc(C)c2)c1C,inactive: 0%
8,Cc1ccc(CSc2nc3ccc(NC(=O)COc4ccc(F)cc4)cc3s2)cc1,inactive: -0.986%
9,O=C(Nc1cnc(N2CCC(N3CCCCC3)CC2)c(C(=O)O)c1)c1ccc(Br)cc1,inactive: 2.72%
10,COc1ccccc1NC(=O)c1c(NC(=O)Cc2ccccc2)sc2c1CCC(C(C)(C)C)C2 (stereo unspecified),inactive: 0.318%
11,COc1ccc(-n2c(=O)c3c(c4cc(OC)ccc4n3C)n(Cc3ccc(F)cc3Cl)c2=O)cc1,inactive: 0.0886%
12,COc1ccc(-c2cc(C(C)=O)c(C)n2CCC(=O)Nc2ccc(C(F)(F)F)cc2)cc1,inactive: -11.5%
13,COc1ccccc1NC(=O)Cn1c(=O)n(Cc2ccccc2)c(=O)c2c3c(sc21)CN(C(C)=O)CC3,inactive: 0.374%
14,CCn1ccc2c(OCC(=O)NCc3ccc(C)cc3)cccc2c1=O,inactive: 0.108%
15,Cc1cc(C)nc(-n2nc(C)c3c2NC(=O)CC3c2cc(F)ccc2F)n1 (stereo unspecified),inactive: -0.816%
16,Cn1c(=O)cc(SCC(=O)N2CCN(c3ccccc3F)CC2)c2cc(Cl)ccc21,inactive: -2.47%
17,CC(C)Sc1ncc(Cl)c(C(=O)Nc2ccc(S(=O)(=O)Nc3ncccn3)cc2)n1,inactive: -2.57%
18,Cc1ccc(NC(=O)c2cc3c([nH]c2=O)CC(C)(C)CC3=O)c(C)c1,inactive: -2.91%
19,Cc1cc(Cl)ccc1OCC(=O)Nc1c(C(=O)c2ccccc2)oc2ccccc12,inactive: 8.68%
20,O=C(CSc1ncc(-c2ccccc2)[nH]1)Nc1cccc(C(F)(F)F)c1,inactive: 3.85%
21,COc1cc(Cn2c(=O)sc3ccccc32)ccc1OCCC(C)C,inactive: -6.29%

row,SMILES,"activity change, negative = inhibition"
1,CC(C)c1ccc2c(c1)-c1ccccc1S(=O)(=O)N2CC(=O)N1CCCCC1,inactive: -12.6%
2,Cc1ccccc1-c1nc(CS(=O)(=O)CC(=O)Nc2cc(Cl)cc(Cl)c2)c(C)o1,inactive: -1.68%
3,Cc1ccccc1CCNC(=O)C1CCN(c2nc3ccccc3nc2C(F)(F)F)CC1,inactive: 7.06%
4,CCOc1ccc(C(=O)NCCn2cc(SCC(=O)Nc3ccccc3)c3ccccc32)cc1,inactive: 10.5%
5,COC(=O)c1cc(NC(=O)c2sc3ncn(Cc4cccc(F)c4)c(=O)c3c2C)cc(C(=O)OC)c1,inactive: 1.93%
6,COc1cc(CN(C(=O)c2cccc(C)c2)c2ccccn2)cc(OC)c1OC,inactive: -1.4%
7,Cc1ccc(-n2c(SCC(=O)NCc3ccccc3)nc3c([nH]c4ccccc43)c2=O)cc1,inactive: 4.75%
8,COc1ccccc1NC(=O)CCS(=O)(=O)c1cc2c3c(c1)CCN3C(=O)CC2,inactive: -1.37%
9,CCC1CCCCN1C(=O)c1nn(-c2ccc(OC)cc2)c(=O)c2c1c1ccccc1n2C (stereo unspecified),inactive: 0.329%
10,O=C(NCc1ccccc1Cl)c1cc(=O)[nH]c2ccc(S(=O)(=O)N3CCCCC3)cc12,inactive: 7.65%
11,CCN(Cc1ccccc1)C(=O)CN1C(=O)COc2ccc(S(=O)(=O)N(CC)CC)cc21,inactive: -2.1%
12,COc1ccccc1CNC(=O)Cn1c(=O)oc2cc(S(=O)(=O)NCc3ccccc3)ccc21,inactive: -11.7%
13,CC1=C(C(=O)Nc2ccc(Cl)cc2)C(C(C)C)n2nc(SCc3ccc(Cl)cc3)nc2N1 (stereo unspecified),inactive: -0.853%
14,Cc1ccc(C)c(N2CCN(C(=O)CCn3c(=O)c4cccn4c4cccnc43)CC2)c1,inactive: -0.914%
15,COc1ccccc1Nc1nc(-c2ccccc2Cl)c2cc(Br)ccc2n1,inactive: 10.2%
16,O=C(NCC1CCN(Cc2cccc(Cl)c2)CC1)c1cc2ccc3cccnc3c2[nH]1,inactive: -2.82%
17,COc1ccc(OC)c(CCNC(=O)C2=C(C)C(=O)OC23CCC(C)CC3)c1 (stereo unspecified),inactive: -18%
18,O=C(Cn1nc(C(F)(F)F)c2c1CCC2)Nc1ccc(Cl)cc1,inactive: -2.62%
19,Cc1cc(C)c2c(CC(=O)Nc3ccc(S(=O)(=O)Nc4ncccn4)cc3)coc2c1,inactive: 7.92%
20,CCc1cccc(C)c1NC(=O)Cn1ccn(Cc2ccc(Cl)cc2)c(=O)c1=O,inactive: 5.18%
21,COc1ccc(NC(=O)CN(C)S(=O)(=O)c2cnc[nH]2)cc1Cl,inactive: -5.09%

row,SMILES,"activity change, negative = inhibition"
1,c1ccc(-c2nnc(CN3CCN(c4ccccc4)CC3)o2)cc1,inactive: 4.02%
2,COc1ccc(-c2noc(COc3ccc(Br)cc3C)n2)cc1OC,inactive: -2.53%
3,Cc1ccc2c(c1C)NC(=O)CC2c1ccc(Cl)cc1Cl (stereo unspecified),inactive: 1.06%
4,CCc1ccc(OCC(=O)Nc2ccc(-c3nc4ncccc4o3)cc2)cc1,inactive: -0.925%
5,CCC(O)c1cc2c(cc1NC(=O)c1ccccc1F)OCCO2 (stereo unspecified),inactive: -20.6%
6,O=C(CC1N=C2c3ccccc3N=C(SCc3cccc(F)c3)N2C1=O)NCc1ccc2c(c1)OCO2 (stereo unspecified),inactive: 0.105%
7,O=C(O)c1ccc(NC(=O)c2cn(-c3ccccc3)nc2-c2ccc(Br)cc2)cc1,inactive: 3.17%
8,Cc1ccc(N2CCN(C(=O)c3cc(S(=O)(=O)N4CCCCC4)c[nH]3)CC2)c(C)c1,inactive: -7.46%
9,Cc1ccc(-c2cc(C(=O)Oc3ccccc3Cl)no2)cc1C,inactive: -6.82%
10,Cc1ccc2nc(Cl)c3cc(C(=O)NC4CCC(C)CC4)sc3c2c1 (stereo unspecified),inactive: -4.19%
11,Cc1cccc(OCC(=O)N(Cc2ccccc2)c2ccccn2)c1,inactive: -3%
12,COC(=O)c1cnc(N2CCN(c3ccc(F)cc3)CC2)c2ccccc12,inactive: -3.68%
13,COc1ccc(CCNC(=O)c2ccc3c(Cl)c4c(nc3c2)CCCC4)c(OC)c1,inactive: -7.97%
14,CS(=O)(=O)N1CCCc2cc(C(=O)Nc3cccc(C(F)(F)F)c3)ccc21,inactive: 0.833%
15,COc1ccc(C2C(=O)N(C3CCCCCC3)CC(=O)N2CCC2=CCCCC2)cc1 (stereo unspecified),inactive: 16%
16,CC(=O)c1ccc(N2CCN(c3ncnc4onc(C)c34)CC2)cc1,inactive: 0.243%
17,CC1CCC(NC(=O)c2ccc(CS(=O)(=O)c3c(Cl)cccc3Cl)o2)CC1 (stereo unspecified),inactive: -18.1%
18,COc1ccc(OCC(=O)Nc2ccccc2C(=O)OCc2cc(=O)n3nc(C)sc3n2)cc1,inactive: 0%
19,COc1cc(-c2nc(-c3cccc(Cl)c3)c(-c3ccccc3)[nH]2)cc(OC)c1OC,inactive: -3.64%
